Reference: patent US20180094045A1 (ASCLEPIUS SUZHOU TECHNOLOGY COMPANY GROUP, published 2018)

Experiments:
[1] = target: T1, Robo1 (ORIGEN Company, number: TP327713) (UniProt Q9Y6N7 26-1651, limits assumed); assay: SPR (BIAcore), Robo1 bound on CM5 chip
T1 construct: also called receptor Robo1; target protein Robo1
Experimental: (§1) The affinity constant between the prepared protein and Robo1 was determined by SPR (Surface Plasmon resonance BIAcore200). The Robo1 (ORIGEN Company, number: TP327713) was bound on CM5 chip and used to analysis the interaction between fusion protein Slit2D2-HSA and receptor Robo1. Kinetic measurements were carried out according to the method referred by Canziani et al. (2004, Anal. Biochem. 325:301-307), simultaneously, the same method was applied to measure the affinity between Slit2N protein (Slit2N is a protein at N-terminal of slit2 with a molecular weight of about 120 KDa) and Robo1.

[2] = target: T1, Robo1 (ORIGEN Company, number: TP327713); assay: SPR (BIAcore), Robo1 bound on CM5 chip; column head 'Kd (nM)'
T1 sequence (Q9Y6N7 26-1651 limits assumed): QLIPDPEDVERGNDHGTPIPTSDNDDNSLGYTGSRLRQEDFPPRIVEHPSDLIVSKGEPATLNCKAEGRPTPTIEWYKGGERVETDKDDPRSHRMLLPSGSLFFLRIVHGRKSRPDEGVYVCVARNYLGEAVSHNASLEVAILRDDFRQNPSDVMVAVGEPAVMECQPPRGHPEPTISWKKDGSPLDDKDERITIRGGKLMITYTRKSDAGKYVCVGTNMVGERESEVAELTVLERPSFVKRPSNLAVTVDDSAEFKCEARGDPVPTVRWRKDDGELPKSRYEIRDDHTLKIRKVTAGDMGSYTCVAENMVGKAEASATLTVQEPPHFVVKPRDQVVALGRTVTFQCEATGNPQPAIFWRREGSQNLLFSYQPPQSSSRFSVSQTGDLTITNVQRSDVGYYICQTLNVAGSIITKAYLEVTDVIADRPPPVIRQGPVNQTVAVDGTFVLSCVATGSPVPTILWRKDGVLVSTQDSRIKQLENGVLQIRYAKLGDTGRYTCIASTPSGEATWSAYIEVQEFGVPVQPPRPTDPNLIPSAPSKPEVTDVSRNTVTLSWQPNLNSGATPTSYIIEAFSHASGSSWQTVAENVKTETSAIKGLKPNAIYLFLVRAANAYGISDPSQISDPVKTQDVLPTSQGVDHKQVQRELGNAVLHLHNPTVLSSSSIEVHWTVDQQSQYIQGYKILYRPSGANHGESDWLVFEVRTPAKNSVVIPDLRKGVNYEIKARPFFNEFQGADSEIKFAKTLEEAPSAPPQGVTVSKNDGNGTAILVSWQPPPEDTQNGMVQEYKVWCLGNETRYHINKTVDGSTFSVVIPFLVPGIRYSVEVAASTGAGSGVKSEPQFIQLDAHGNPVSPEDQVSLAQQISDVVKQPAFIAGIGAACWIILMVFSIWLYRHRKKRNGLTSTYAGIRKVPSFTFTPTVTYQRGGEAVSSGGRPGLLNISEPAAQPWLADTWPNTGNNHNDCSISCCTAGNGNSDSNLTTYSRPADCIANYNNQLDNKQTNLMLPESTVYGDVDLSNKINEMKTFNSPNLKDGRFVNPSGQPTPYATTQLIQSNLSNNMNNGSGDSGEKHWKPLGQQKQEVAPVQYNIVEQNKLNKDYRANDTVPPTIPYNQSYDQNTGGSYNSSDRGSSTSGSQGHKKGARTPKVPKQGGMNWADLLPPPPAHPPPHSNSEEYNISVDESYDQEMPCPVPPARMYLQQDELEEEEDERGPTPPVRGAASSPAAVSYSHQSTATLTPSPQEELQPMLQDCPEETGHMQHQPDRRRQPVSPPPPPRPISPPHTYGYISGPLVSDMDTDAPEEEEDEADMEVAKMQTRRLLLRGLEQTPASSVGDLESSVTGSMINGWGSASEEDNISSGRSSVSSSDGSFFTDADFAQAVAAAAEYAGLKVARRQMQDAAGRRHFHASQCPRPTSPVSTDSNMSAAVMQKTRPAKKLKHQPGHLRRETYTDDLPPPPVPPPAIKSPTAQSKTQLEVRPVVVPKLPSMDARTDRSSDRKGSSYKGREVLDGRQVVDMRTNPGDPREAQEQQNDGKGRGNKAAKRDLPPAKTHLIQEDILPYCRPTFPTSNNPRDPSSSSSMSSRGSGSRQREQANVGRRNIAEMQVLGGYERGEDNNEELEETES
Experimental: as §1

B1: fusion protein Slit2D2-HSA (ligand)
chain: LHCPAACTCSNNIVDCRGKGLTEIPTNLPETITEIRLEQNTIKVIPPGAFSPYKKLRRIDLSNNQISELAPDAFQGLRSLNSLVLYGNKITELPKSLFEGLFSLQLLLLNANKINCLRVDAFQDLHNLNLLSLYDNKLQTIAKGTFSPLRAIQTMHLAQNPFICDCHLKWLADYLHTNPIETSGARCTSPRRLANKRIGQIKSKKFRCS[about 600 residues not spelt out]
kon [1]: 177000 M⁻¹ s⁻¹
Kd [2]: 2.8 nM
